The text below walks through data of the supplement of paper PMC12217912.

Some of the results follow. The full chains were built here from the parent and the listed change. Inactive controls read about 0.05.

To fix the notation:
B1: TEV protease; numbered along this chain (parent)
chain: MGESLFKGPRDYNPISSSICHLTNESDGHTTSLYGIGFGPFIITNKHLFRRNNGTLVVQSLHGVFKVKDTTTLQQHLVDGRDMIIIRMPKDFPPFPQKLKFREPQREERICLVTTNFQTKSMSSMVSDTSCTFPSGDGIFWKHWIQTKDGQCGSPLVSTRDGFIVGIHSASNFTNTNNYFTSVPKNFMELLTNQEAQQWVSGWRLNADSVLWGGHKVFMVKPEEPFQPVKEATQL

This test covers variants of B1. As to the kind of experiment: raw area under fraction-flipped curve 0-4 h after induction (AUC4h, not background-subtracted), DNA-recorder readout of cleavage of the substrate (dimensionless); higher = more cleavage of the substrate by the protease variant. Particulars: temperature: 34 °C; time window: 0-4 h after rhamnose induction.
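Also: Bxb1 expression induced with 0.2% (w/v) L-rhamnose at OD600 near 0.5, cultures sampled hourly, flipped fraction per protease–substrate barcode pair counted by paired-end Illumina sequencing.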

On to MRESLFKGPRDYNPISSSICHLTNESDGHTTSLYGIGFGPFIITNKHLFRRNNGTLVVQSLHGVFKVKDTTTLQQHLVDGRDMIIIRMPKDFPPFPQKLKFREPQREERICLVTTNFQTKSMSSMVSDTSCTFPSGDGIFWKHWIQTKDGQCGSPLVSTRDGFIVGIHSASNFTNTNNYFTSVPKNFMELLTNQEAQQWVSGWRLNADSVLWGGHKVFMVKPEEPFQPVKEATQL [G2R], for which the “area with substrate ENLYFES” value was found to be 0.0773, the “area with substrate ENLYFHS” value was determined as 0.0582, the “area with substrate ENLYFIS” value came out at 0.0487 and the “area with substrate ENLYFMS” value was 0.0739. The “area with substrate ENLYFRS” value was 0.0626, the “area with substrate ENLYFSS” value came to 0.0689, the “area with substrate ENLYFTS” value was found to be 0.0567 and the “area with substrate ENLYFVS” value was determined as 0.0495. In addition, the “area with substrate ENLYFWS” value worked out at 0.0535.

Take MGESLFKGPRDYNPISSSICHLTNESDGHTTSLYGIGFGPFIITNKHLFRRNNGTLVVQSLHGVFKVKDTTTLQQHLVDGRDMIIIRMPKDFPPFPQKLKFREPQREERIGLVTTNFQTKSMSSMVSDTSCTFPSGDGIFWKHWIQTKDGQCGSPLVSTRDGFIVGIHSASNFTNTNNYFTSVPKNFMELLTNQEAQQWVSGWRLNADSVLWGGHKVFMVKPEEPFQPVKEATQL [C111G]: the “area with substrate ENLYFES” value is 0.0657, the “area with substrate ENLYFFS” value worked out at 0.064, the “area with substrate ENLYFIS” value turned out to be 0.0497 and the “area with substrate ENLYFKS” value turned out to be 0.062. Further, the “area with substrate ENLYFMS” value came out at 0.061, the “area with substrate ENLYFPS” value is 0.0631, the “area with substrate ENLYFTS” value turned out to be 0.0499 and the “area with substrate ENLYFVS” value stood at 0.0583. For the same variant, the “area with substrate ENLYFWS” value was determined as 0.0444.

For MGESLFKGPRDYNPISSSICHLTNESDGHTTSLYGIGFGPFIITNKHLFRRNNGTLVVQSLHGVFKVKDTTTLQQHLVDGRDMIIIRMPKDFPPFPQKLKFREPQREERICLVTTNFQTKSMSSAVSDTSCTFPSGDGIFWKHWIQTKDGQCGSPLVSTRDGFIVGIHSASNFTNTNNYFTSVPKNFMELLTNQEAQQWVSGWRLNADSVLWGGHKVFMVKPEEPFQPVKEATQL [M125A], the “area with substrate ENLYFES” value amounted to 0.0644, the “area with substrate ENLYFIS” value worked out at 0.0521, the “area with substrate ENLYFKS” value came to 0.0605 and the “area with substrate ENLYFMS” value was found to be 0.0803. For the same variant, the “area with substrate ENLYFPS” value was 0.0563, the “area with substrate ENLYFSS” value worked out at 0.0627, the “area with substrate ENLYFTS” value was determined as 0.0469 and the “area with substrate ENLYFVS” value amounted to 0.0616. In addition, the “area with substrate ENLYFYS” value turned out to be 0.0809.

Turning to MGESLFKGPRDYNPISSSICHLTNESDGHTTSLYGIGFGPFIITNKHLFRRNNGTLVVQSLHGVFKVKDTTTLQQHLVDGRDMIIIRMPKIFPPFPQKLKFREPQREERICLVTTNFQTKSMSSMVSDTSCTFPSGDGIFWKHWIQTKDGQCGSPLVSTRDGFIVGIHSASNFTNTNNYFTSVPKNFMELLTNQEAQQWVSGWRLNADSVLWGGHKVFMVKPEEPFQPVKEATQL [D91I], the “area with substrate ENLYFES” value came out at 0.0593, the “area with substrate ENLYFFS” value is 0.0663, the “area with substrate ENLYFHS” value worked out at 0.0454 and the “area with substrate ENLYFIS” value is 0.0516. In addition, the “area with substrate ENLYFMS” value stood at 0.0657, the “area with substrate ENLYFNS” value was found to be 0.0631, the “area with substrate ENLYFPS” value was determined as 0.051 and the “area with substrate ENLYFRS” value came to 0.0452.

Turning to MGESLFKGPRDYNPISSSICHLTNESDGHTTSLYGIGFGPFIITNKHLFRRNNGTLVVQSLHGVFKVKDTTTLQQHLVDGRDMIIIRMPKDFPPIPQKLKFREPQREERICLVTTNFQTKSMSSMVSDTSCTFPSGDGIFWKHWIQTKDGQCGSPLVSTRDGFIVGIHSASNFTNTNNYFTSVPKNFMELLTNQEAQQWVSGWRLNADSVLWGGHKVFMVKPEEPFQPVKEATQL [F95I], the “area with substrate ENLYFES” value amounted to 0.0581, the “area with substrate ENLYFMS” value was determined as 0.064, the “area with substrate ENLYFRS” value was 0.0421 and the “area with substrate ENLYFYS” value was 0.0443.

As for MGESLFKGPRDYNPISSSICHLTNESDGHTTSLYGIGFGPFIITNKHLFRRNNGTLVVQSLHGVFKVKDTTTLQQHLVDGRDMIIIRMPKDFPPFPQKLKFREPQREERICLVTTNFQTKSMSNMVSDTSCTFPSGDGIFWKHWIQTKDGQCGSPLVSTRDGFIVGIHSASNFTNTNNYFTSVPKNFMELLTNQEAQQWVSGWRLNADSVLWGGHKVFMVKPEEPFQPVKEATQL [S124N], the “area with substrate ENLYFES” value is 0.0719, the “area with substrate ENLYFIS” value worked out at 0.0609, the “area with substrate ENLYFKS” value was found to be 0.0753 and the “area with substrate ENLYFLS” value worked out at 0.0498. Further, the “area with substrate ENLYFNS” value was 0.0629, the “area with substrate ENLYFPS” value came out at 0.0571, the “area with substrate ENLYFSS” value turned out to be 0.0656 and the “area with substrate ENLYFVS” value was 0.0589. Besides, the “area with substrate ENLYFYS” value worked out at 0.0536.

Consider MGESLFKGPRDYNPISSSICHLTNESDGHTTSLYGIGFGPFIITNKHLFRRNNGTLVVQSLHGVFKVKDTTTLQQHLVDGRDMIIIRMPKDFPPFPQKLKFREPQRIERICLVTTNFQTKSMSSMVSDTSCTFPSGDGIFWKHWIQTKDGQCGSPLVSTRDGFIVGIHSASNFTNTNNYFTSVPKNFMELLTNQEAQQWVSGWRLNADSVLWGGHKVFMVKPEEPFQPVKEATQL [E107I], for which the “area with substrate ENLYFES” value turned out to be 0.0689, the “area with substrate ENLYFFS” value stood at 0.0615, the “area with substrate ENLYFMS” value amounted to 0.0437 and the “area with substrate ENLYFPS” value is 0.0904. Further, the “area with substrate ENLYFRS” value came to 0.0447, the “area with substrate ENLYFTS” value worked out at 0.0649 and the “area with substrate ENLYFWS” value amounted to 0.0883.

On to MGESLFKGPRDYNPISSSICHLTNESDGHTTSLYGIGFGPFIITNKHLFRRNNGTLVVQSLHGVFKVKKTTTLQQHLVDGRDMIIIRMPKDFPPFPQKLKFREPQREERICLVTTNFQTKSMSSMVSDTSCTFPSGDGIFWKHWIQTKDGQCGSPLVSTRDGFIVGIHSASNFTNTNNYFTSVPKNFMELLTNQEAQQWVSGWRLNADSVLWGGHKVFMVKPEEPFQPVKEATQL [D69K], for which the “area with substrate ENLYFES” value was 0.0576, the “area with substrate ENLYFIS” value was 0.0604, the “area with substrate ENLYFKS” value came out at 0.066 and the “area with substrate ENLYFMS” value was 0.0748. Further, the “area with substrate ENLYFNS” value came to 0.0754, the “area with substrate ENLYFRS” value came to 0.0348 and the “area with substrate ENLYFVS” value amounted to 0.0616.

MGESLFKGPRDYNPISSSICHLTNESDGHTTSLYGIGFGPFIITNKHLFRRNNGTLVVQSLHGVFKVKDTTTLQQHLVDGRDMIIIRMPKDFPRFPQKLKFREPQREERICLVTTNFQTKSMSSMVSDTSCTFPSGDGIFWKHWIQTKDGQCGSPLVSTRDGFIVGIHSASNFTNTNNYFTSVPKNFMELLTNQEAQQWVSGWRLNADSVLWGGHKVFMVKPEEPFQPVKEATQL [P94R]: the “area with substrate ENLYFES” value is 0.0659, the “area with substrate ENLYFHS” value amounted to 0.0576, the “area with substrate ENLYFKS” value is 0.0656 and the “area with substrate ENLYFMS” value is 0.0733. In addition, the “area with substrate ENLYFSS” value worked out at 0.0465, the “area with substrate ENLYFTS” value came to 0.0351, the “area with substrate ENLYFWS” value was found to be 0.0512 and the “area with substrate ENLYFYS” value is 0.0575.

On to MGESLFKGPRDYNPISSSICHLTNESDGHTTSLYGIHFGPFIITNKHLFRRNNGTLVVQSLHGVFKVKDTTTLQQHLVDGRDMIIIRMPKDFPPFPQKLKFREPQREERICLVTTNFQTKSMSSMVSDTSCTFPSGDGIFWKHWIQTKDGQCGSPLVSTRDGFIVGIHSASNFTNTNNYFTSVPKNFMELLTNQEAQQWVSGWRLNADSVLWGGHKVFMVKPEEPFQPVKEATQL [G37H], for which the “area with substrate ENLYFES” value amounted to 0.0601, the “area with substrate ENLYFFS” value came out at 0.0709, the “area with substrate ENLYFIS” value is 0.0451 and the “area with substrate ENLYFKS” value turned out to be 0.0544. Also, the “area with substrate ENLYFNS” value worked out at 0.0522, the “area with substrate ENLYFRS” value amounted to 0.0476, the “area with substrate ENLYFTS” value came out at 0.0445 and the “area with substrate ENLYFVS” value is 0.0466. Besides, the “area with substrate ENLYFWS” value was 0.0759.

As for MGESLFKGPRDYNPISSSICHLTNESDGHTTSLYGIGFGPFIITNKHLFRRNNGTLVVQSLHGVFKVKDTTTLQQHLVPGRDMIIIRMPKDFPPFPQKLKFREPQREERICLVTTNFQTKSMSSMVSDTSCTFPSGDGIFWKHWIQTKDGQCGSPLVSTRDGFIVGIHSASNFTNTNNYFTSVPKNFMELLTNQEAQQWVSGWRLNADSVLWGGHKVFMVKPEEPFQPVKEATQL [D79P], the “area with substrate ENLYFES” value amounted to 0.0652, the “area with substrate ENLYFFS” value turned out to be 0.0513, the “area with substrate ENLYFIS” value came to 0.0679 and the “area with substrate ENLYFPS” value stood at 0.0865.
